According to the supplement of paper PMC12217912:
This is one part of the list. The full chains were built here from the parent and the listed change. Values near 0.05 are background.

B1: TEV protease; numbered along this chain (parent)
chain: MGESLFKGPRDYNPISSSICHLTNESDGHTTSLYGIGFGPFIITNKHLFRRNNGTLVVQSLHGVFKVKDTTTLQQHLVDGRDMIIIRMPKDFPPFPQKLKFREPQREERICLVTTNFQTKSMSSMVSDTSCTFPSGDGIFWKHWIQTKDGQCGSPLVSTRDGFIVGIHSASNFTNTNNYFTSVPKNFMELLTNQEAQQWVSGWRLNADSVLWGGHKVFMVKPEEPFQPVKEATQL

Variants of: B1
Assay: raw area under fraction-flipped curve 0-4 h after induction (AUC4h, not background-subtracted), DNA-recorder readout of cleavage of the substrate (dimensionless); higher = more cleavage of the substrate by the protease variant
Conditions: temperature: 34 °C; time window: 0-4 h after rhamnose induction
Experimental: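 In vivo DNA recorder in E. coli TOP10(DE3) ΔrhaA at 34 °C. Each TEVp single-site mutant (parent TEVp 0) is paired with a single-site variant of the 7-mer TEVs (canonical ENLYFQ|S). The substrate sits between flexible linkers in a Bxb1-sfGFP-TEVs-SsrA fusion, so cleavage stabilises Bxb1 and speeds flipping of a recombination array, read by NGS. The value is the raw area under the fraction-flipped curve over 0-4 h after rhamnose induction (AUC4h), with ≥20 reads per time point. It is not background-subtracted; inactive controls average about 0.047.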
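Also: Bxb1 expression induced with 0.2% (w/v) L-rhamnose at OD600 near 0.5, cultures sampled hourly, flipped fraction per protease–substrate barcode pair counted by paired-end Illumina sequencing.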

| Variant | area with substrate ENLAFQS | area with substrate ENLDFQS | area with substrate ENLEFQS | area with substrate ENLFFQS | area with substrate ENLIFQS | area with substrate ENLKFQS | area with substrate ENLLFQS | area with substrate ENLMFQS | area with substrate ENLNFQS | area with substrate ENLQFQS | area with substrate ENLRFQS | area with substrate ENLSFQS | area with substrate ENLTFQS | area with substrate ENLWFQS | area with substrate ENLPFQS | area with substrate ENLCFQS | area with substrate ENLGFQS | area with substrate ENLHFQS | area with substrate ENLVFQS |
| --- | --- | --- | --- | --- | --- | --- | --- | --- | --- | --- | --- | --- | --- | --- | --- | --- | --- | --- | --- |
| E108I | 0.0555 | 0.0532 | 0.0586 | 0.0654 | 0.0734 | 0.0151 | 0.0534 | 0.0879 | 0.0624 | 0.0396 | 0.0642 | 0.0517 | 0.0662 | 0.0494 |  |  |  |  |  |
| R109H | 0.0577 | 0.0518 | 0.0626 | 0.0793 | 0.0693 | 0.0893 |  |  |  |  |  | 0.0664 |  |  | 0.0391 |  |  |  |  |
| I110M | 0.0417 | 0.0751 | 0.0463 | 0.0663 |  | 0.0368 | 0.064 |  | 0.0598 | 0.0481 | 0.0516 | 0.0708 | 0.069 |  | 0.057 | 0.0636 | 0.0653 | 0.0647 |  |
| I110Q | 0.0629 | 0.0645 | 0.0539 | 0.0596 |  | 0.0746 | 0.0718 |  |  |  |  | 0.0642 |  |  | 0.0523 |  | 0.0679 | 0.0608 |  |
| C111I | 0.0549 | 0.0608 | 0.0704 | 0.0724 |  | 0.0758 | 0.0487 |  | 0.068 |  | 0.0675 | 0.0542 |  | 0.0708 | 0.0582 |  |  |  |  |
| V113A | 0.0549 | 0.0571 | 0.0669 | 0.0854 |  | 0.08 | 0.063 |  | 0.0607 | 0.0854 |  | 0.0693 | 0.0613 | 0.0636 |  | 0.0692 | 0.0591 | 0.0697 |  |
| V113T | 0.0639 | 0.0673 |  | 0.0693 |  |  |  |  | 0.0453 | 0.0603 |  |  |  | 0.0796 |  |  |  | 0.0628 | 0.0668 |
| T114Q | 0.0628 | 0.0574 | 0.0701 | 0.0924 |  | 0.0733 | 0.0578 | 0.0788 | 0.0702 |  | 0.0704 | 0.0564 |  | 0.0687 | 0.0704 | 0.0724 |  | 0.0485 | 0.0841 |
| T115W | 0.0535 |  | 0.0622 | 0.0926 | 0.0769 |  | 0.0749 |  | 0.0658 |  | 0.0981 | 0.0622 |  |  | 0.0581 |  |  | 0.0467 | 0.0469 |
| N116E | 0.0729 | 0.0564 | 0.055 | 0.0778 | 0.0836 |  |  | 0.0628 | 0.0636 | 0.07 | 0.056 | 0.0607 |  | 0.0402 | 0.0694 | 0.0519 | 0.0662 | 0.0678 |  |
| F117G | 0.0746 | 0.065 |  |  | 0.0751 |  |  |  | 0.0546 |  | 0.0855 | 0.0673 |  |  | 0.0598 |  | 0.0631 | 0.0815 |  |
| F117K | 0.0688 |  |  | 0.0796 | 0.0746 |  |  |  | 0.0594 |  |  | 0.0555 |  |  | 0.0663 | 0.0718 | 0.0732 | 0.0613 |  |
| K120Q | 0.0748 | 0.0526 | 0.0754 | 0.0777 |  | 0.0813 | 0.0729 |  |  | 0.0832 | 0.0748 |  | 0.0717 | 0.031 | 0.0587 |  | 0.063 | 0.0534 | 0.0683 |
| M122L | 0.0633 | 0.0774 |  | 0.101 | 0.084 | 0.0765 |  |  | 0.0675 |  | 0.069 | 0.0626 |  | 0.06 |  | 0.0869 |  | 0.11 | 0.0997 |
| M122W | 0.08 | 0.0675 | 0.0569 | 0.057 | 0.0791 | 0.0456 | 0.0797 |  | 0.0671 | 0.0633 | 0.0794 | 0.0598 | 0.0571 | 0.0725 | 0.0459 |  | 0.0634 | 0.0697 | 0.0871 |
| S123V | 0.0602 | 0.0806 | 0.0663 | 0.0581 | 0.0894 | 0.0816 | 0.0486 |  | 0.0425 |  | 0.0742 | 0.0682 |  |  | 0.0533 | 0.0789 | 0.0865 | 0.0749 |  |
| S124D | 0.0645 | 0.0612 |  |  | 0.0759 | 0.0835 | 0.0668 |  | 0.0573 | 0.0585 | 0.0656 | 0.0632 |  |  | 0.0644 |  |  | 0.0706 | 0.0637 |
| S124E | 0.0648 | 0.0649 |  | 0.0696 |  | 0.0896 |  |  | 0.0762 |  |  | 0.0606 |  | 0.0656 | 0.0858 |  |  | 0.0776 |  |
| S124M | 0.0556 | 0.0632 | 0.0613 | 0.0912 |  | 0.0629 |  |  | 0.0829 |  |  | 0.0628 |  | 0.0668 |  | 0.0652 |  | 0.0563 | 0.0939 |
| S124Q | 0.0795 | 0.0637 | 0.0671 | 0.0765 | 0.0773 | 0.0845 | 0.0784 | 0.0662 | 0.067 |  | 0.0694 | 0.0621 |  | 0.0778 | 0.0501 |  | 0.0638 | 0.0709 |  |
| V126R | 0.0649 | 0.0716 | 0.0511 | 0.103 | 0.0833 | 0.0793 |  | 0.0848 | 0.0629 |  | 0.115 | 0.062 |  | 0.0624 | 0.0566 |  | 0.0547 | 0.0737 | 0.0898 |
| S127A | 0.0682 | 0.0483 |  | 0.0851 | 0.0745 | 0.0844 |  | 0.0744 | 0.0682 | 0.0909 | 0.067 | 0.0682 | 0.0735 | 0.0758 | 0.0595 | 0.0741 | 0.0458 | 0.0664 |  |
| S127H | 0.0671 | 0.0663 | 0.0771 | 0.112 | 0.113 | 0.0765 | 0.0702 |  | 0.0697 | 0.0111 | 0.0754 | 0.078 | 0.0655 | 0.0645 | 0.0923 | 0.0745 | 0.0794 | 0.0765 | 0.109 |
| S130C | 0.0772 | 0.0669 |  | 0.101 |  |  |  |  | 0.0709 | 0.078 |  | 0.0495 |  |  | 0.0709 |  |  |  |  |
| S130N | 0.0721 | 0.0536 |  | 0.0905 |  | 0.0879 |  |  | 0.0732 | 0.0569 |  |  |  | 0.0671 |  |  | 0.0733 | 0.0559 |  |
| S130Q | 0.046 | 0.07 |  | 0.0723 |  | 0.0979 |  |  | 0.0478 |  |  |  |  | 0.0601 | 0.0633 |  | 0.0729 |  | 0.119 |
| D137K | 0.0675 | 0.0603 |  |  | 0.0944 | 0.0792 |  |  | 0.0638 | 0.0536 |  | 0.0507 |  |  | 0.0582 |  |  |  | 0.0628 |
| I139M | 0.0658 | 0.0642 | 0.0728 | 0.0851 | 0.0769 | 0.0695 | 0.0752 | 0.0698 | 0.071 | 0.0621 | 0.072 | 0.0637 |  | 0.0617 | 0.0551 |  |  | 0.0736 |  |
